Test results reported in PubChem BioAssay AID488969 (Vanderbilt High Throughput Screening Facility, 2010).
In all, about 110,000 compounds were measured (“z-score”: median about -0.1, highest 2% from about 2 on). Some of the results follow.

Target: Metabotropic glutamate receptor 8 (Rattus norvegicus) (UniProt P70579)
Test: rat mGluR8 modulators via GIRK flux, primary screen, cell-based, thallium flux, HTS (AID 488969)
Conditions: HEK293 rat mGluR8, GIRK (G protein-gated inwardly rectifying potassium channel) thallium flux, FluoZin2; at 10 µM; stronger effect = higher value; submaximal glutamate (EC20) added with thallium

UniProt P70579, sequence (P70579 whole entry, looked up): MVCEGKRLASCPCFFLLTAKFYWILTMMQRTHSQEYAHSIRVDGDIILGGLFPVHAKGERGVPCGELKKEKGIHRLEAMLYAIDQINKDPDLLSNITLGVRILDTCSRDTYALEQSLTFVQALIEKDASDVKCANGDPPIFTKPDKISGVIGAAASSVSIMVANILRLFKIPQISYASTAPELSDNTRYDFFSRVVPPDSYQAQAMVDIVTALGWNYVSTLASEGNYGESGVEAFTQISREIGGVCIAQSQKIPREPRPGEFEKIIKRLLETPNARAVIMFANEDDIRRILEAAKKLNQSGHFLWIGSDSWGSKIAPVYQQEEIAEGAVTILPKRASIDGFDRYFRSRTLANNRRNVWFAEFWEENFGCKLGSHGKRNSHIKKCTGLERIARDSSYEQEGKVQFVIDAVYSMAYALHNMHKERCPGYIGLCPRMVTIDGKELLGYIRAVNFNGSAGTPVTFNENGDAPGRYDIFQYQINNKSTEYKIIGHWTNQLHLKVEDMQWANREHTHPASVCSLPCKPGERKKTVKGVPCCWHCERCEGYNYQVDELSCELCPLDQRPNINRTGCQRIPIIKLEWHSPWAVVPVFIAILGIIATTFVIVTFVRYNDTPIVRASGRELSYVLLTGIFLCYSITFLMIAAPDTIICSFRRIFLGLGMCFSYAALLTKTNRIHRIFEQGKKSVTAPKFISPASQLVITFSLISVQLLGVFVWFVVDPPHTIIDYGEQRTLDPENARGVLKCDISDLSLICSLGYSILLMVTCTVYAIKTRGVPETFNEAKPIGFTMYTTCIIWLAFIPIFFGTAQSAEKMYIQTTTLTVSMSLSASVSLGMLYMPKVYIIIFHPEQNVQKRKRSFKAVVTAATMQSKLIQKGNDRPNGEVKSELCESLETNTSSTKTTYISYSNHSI

Row | SMILES | z-score
1 | CCCn1c(=N)n(CC(=O)O)c2ccccc21 | 0.834
2 | COc1cc(-c2nc3cnccc3n2C)cc(OC)c1OC | -0.268
3 | CN(C)Cc1cnc2ccc(Cl)cn12 | 0.0546
4 | COc1cccc(OCCn2cc(C(=O)c3ccco3)c3ccccc32)c1 | -0.473
5 | COC(=O)Cc1ccc(NC(=S)N2CCN(c3ccc(F)cc3)CC2)cc1 | -0.586
6 | Cc1ccc(NC(=S)NN2CCN(C)CC2)c(C)c1 | -0.222
7 | O=C(O)c1cccnc1SC1CC(=O)N(Cc2ccccc2)C1=O (centres undefined) | -0.166
8 | CC(=O)N1CCc2cc(S(=O)(=O)NC(Cc3ccccc3)C(=O)Nc3cc(C)ccn3)ccc21 (centres undefined) | -0.845
9 | Cc1cc2nc(C)n(CCCNC(=O)Nc3ccc(F)cc3)c2cc1C | -0.19
10 | CCOC(=O)c1c(NC(=S)NC(=O)c2ccco2)sc2c1CCCC2 | 0.218
11 | CCN(C(=O)Cc1c(C(=O)O)[nH]c2ccccc12)c1cc(OC)ccc1OC | -0.314
12 | CC(=O)Nc1ccc(S(=O)(=O)Nc2nc3ccccc3nc2N2CCCCCC2)cc1 | -0.103
13 | CC(Cc1cccs1)NC(=S)Nc1ccccc1 (centres undefined) | -0.124
14 | CCCCC1CCC(C(=O)Nc2ccccc2)CC1 (centres undefined) | -0.237
15 | O=C(O)C1CC(=O)N(Cc2ccccc2)C1 (centres undefined) | 0.17
16 | O=C(CCN1C(=O)C2C3C=CC(C3)C2C1=O)Nc1c(F)cc(F)cc1Br (centres undefined) | -0.082
17 | CCOc1ccc(S(=O)(=O)n2c(C)nc3ccccc32)cc1 | -0.639
18 | COC(=O)C(Cc1c[nH]c2ccccc12)NC(=O)c1cc(-c2ccc(OC)c(OC)c2)oc1C (centres undefined) | -0.0544
19 | COc1cc(NS(=O)(=O)c2ccc(NC(C)=O)cc2)nc(OC)n1 | 0.152
20 | S=c1[nH]nc(Cc2cccs2)n1-c1cccc2ccccc12 | 0.0708
21 | COc1ccccc1NC(=S)NNC(=O)c1ccccc1Br | -0.0206
22 | O=C(Nc1cccc(C(F)(F)F)c1)c1cnc2n(c1=O)CCS2 | 0.0706
23 | Cc1ccc(-c2cc(C(=O)Nc3ccc(S(=O)(=O)Nc4cc(C)on4)cc3)c3ccccc3n2)c(C)c1 | -0.0128

Row | SMILES | z-score
24 | COc1ccc(N/N=C2/CCCCC2=O)cc1 | 0.302
25 | CCCCCCC1CC(C)(C(=O)CNc2nncs2)OC1=O (centres undefined) | -0.244
26 | O=C(CC12CC3CC(CC(C3)C1)C2)N1CCOCC1 | 0.275
27 | Cc1ccc(N=C2N=C(N)c3ccccc32)c(C)c1 | -0.146
28 | Cc1c(N)c(C(C)(C)C)cc(C(C)(C)C)c1[N+](=O)[O-] | -0.325
29 | NC(N)=N/N=C/c1ccc(OCc2ccccc2Cl)cc1 | 0.258
30 | Cc1ccc(SCCNC(=O)CN(c2ccc3c(c2)OCO3)S(C)(=O)=O)cc1 | 1.96
31 | Cc1ccn2c(C(=O)N/N=C\c3ccccc3[N+](=O)[O-])c(C)nc2c1 | -0.0577
32 | C=CCn1c(COc2cccc(C)c2)nnc1SCC(=O)c1c[nH]c2c(CC)cccc12 | 0.643
33 | NC(=O)c1ccsc1NC(=O)CSc1nc2ccccc2c(=O)n1CCCO | -0.109
34 | Cc1ccc(C(=O)c2ccccc2C(=O)OCC(=O)Nc2cccc([N+](=O)[O-])c2)cc1 | -0.147
35 | C/C(=N\OC(=O)c1ccc(OC(C)C)cc1)c1ccc(C)c(C)c1 | -0.319
36 | COC(=O)c1sc2ccccc2c1-n1cccc1C(=O)C(=O)Nc1ccccc1 | 0.309
37 | COc1ccc(C2C(C#N)=C(N)Nc3onc(C(C)(C)C)c32)c(OC)c1 (centres undefined) | -0.0893
38 | CNC(=O)c1[nH]cnc1C(=O)Nc1ccc(C)cc1 | 1.33
39 | O=C1CC(SCCO)C(=O)N1c1ccc(Oc2ccccc2)cc1 (centres undefined) | -0.0704
40 | CCCN(CC1COc2ccccc2O1)C(=S)Nc1ccc(C)cc1 (centres undefined) | -0.0374
41 | CC(Sc1nnc(Cc2ccc([N+](=O)[O-])cc2)o1)C(N)=O (centres undefined) | -0.0336
42 | CNC(=O)c1nn(-c2ccccc2)ccc1=O | -0.00144
43 | CCn1c(CSc2nc(C)cs2)nc2cc(S(=O)(=O)N(C)C)ccc21 | 0.284
44 | c1ccc2c(-c3c[nH]c4ccccc34)c3ccccc3nc2c1 | 0.574
45 | COCC(C)Nc1ncnc2c1cnn2-c1ccc(Cl)cc1 (centres undefined) | -0.168
46 | O=C(NC(Nc1nc2ccccc2s1)(C(F)(F)F)C(F)(F)F)c1ccccc1 | -0.124

Row | SMILES | z-score
47 | CN1/C(=C/C2CC(=O)NC2=O)C(C)(C)c2ccccc21 (centres undefined) | 0.257
48 | S=C(Nc1ccc(Br)cc1)NC1CCCC1 | 0.487
49 | Cc1ccccc1OCCn1c(=O)sc2ccccc21 | 0.116
50 | O=c1oc2cc(OCc3ccc([N+](=O)[O-])cc3)ccc2c2c1CCCC2 | 0.0141
51 | CC1=Nc2ccccc2/C1=C\c1nc(-c2ccccc2)oc1O | -0.305
52 | CC(=O)OCC1OC(OC(C)=O)C(NC(=O)c2cccnc2)C(OC(C)=O)C1OC(C)=O (centres undefined) | -0.202
53 | O=C(Cn1cnc2c(oc3ccccc32)c1=O)N1CCCc2ccccc21 | -0.0875
54 | COc1ccccc1CP(=O)(c1ccccc1)c1ccccc1 | -0.364
55 | COC(=O)c1nnn(CC(=O)Nc2cccc(Cl)c2)c1C(=O)OC | -0.1
56 | CCCC(c1nnnn1CS(=O)(=O)c1ccc(C)cc1)N1CCN(c2ccc(F)cc2)CC1 (centres undefined) | -0.0181
57 | CC1CCCN(S(=O)(=O)Cc2ccc(Cl)cc2)C1 (centres undefined) | -0.884
58 | COc1ccccc1N(CN1CCCC1=O)C(=O)c1c(F)cccc1Cl | 0.241
59 | CCOC(=O)c1snc2c(=O)[nH]cnc12 | -0.496
60 | CCN(CC)c1ccc(NC(=O)c2c(OC)cccc2OC)c(C)c1 | -0.524
61 | COc1cccc(NC(=O)CSCC(=O)Nc2ccccc2)c1 | -0.472
62 | CCCCOc1ccccc1C(=O)NCCCC(=O)O | -0.417
63 | O=C(CCNS(=O)(=O)c1cccs1)NCc1cccs1 | -0.157
64 | S=c1nccc(-c2cc(Cl)sc2Cl)[nH]1 | 1.26
65 | COC(=O)CCS(=O)(=O)c1ccc(Cl)cc1 | 0.957
66 | CCOc1ccccc1C(=O)Nc1cnn(Cc2ccc(F)cc2)c1 | -0.749
67 | CC1CCc2cccc3c2N1c1cc(C#N)c(C#N)cc1O3 (centres undefined) | -2.2
68 | O=C(N/N=C/c1cccs1)c1cc(-c2cccc3ccccc23)n[nH]1 | 0.882
69 | Cc1ccc(C(=O)N2CC(C)SC2=Nc2cccc(S(=O)(=O)N(C)C)c2)cc1 (centres undefined) | -0.203

Row | SMILES | z-score
70 | Cc1cccn2c(=O)c(C=Nc3ccc(Cl)cc3)c(NCCO)nc12 | -0.397
71 | COc1ccc(N2CCN(C(=O)C3(C)CC3(Cl)Cl)CC2)cc1 (centres undefined) | -0.166
72 | C/C(=N\N=C(/N)SC1CC(=O)N(c2ccc(Cl)cc2)C1=O)c1cccs1 (centres undefined) | 0.416
73 | Cc1ccc(-c2cc(C(=O)N3CCCC3)no2)cc1 | -0.457
74 | Cc1noc(C)c1S(=O)(=O)N1CCC(Cc2ccccc2)CC1 | 2.68
75 | Cc1nc2c(c3c1[nH]c1ccccc13)C(=O)CC(C)(C)C2 | -0.219
76 | Cc1cc(C)n(C(=O)C23CC4CC(CC(C4)C2)C3)n1 | 0.557
77 | C=C(C)Cn1c(CCCNC(=O)CC)nc2ccccc21 | 0.186
78 | COc1cc(=O)n2c(n1)SCCC2 | -0.228
79 | c1cncc(-c2nnc(C3CCCCC3)o2)c1 | -0.866
80 | O=C(O)CN=C1NC2(CCCC2)Cc2ccccc21 | -0.31
81 | Cc1ccc(OCCn2c(=O)cnc3ccccc32)cc1 | -0.0588
82 | Cc1ccc(S(=O)(=O)N2CCOCC2)cc1C(=O)Nc1ccc2c(c1)CCC2 | -0.205
83 | Cc1cccc(-c2noc(-c3ccccc3C(=O)NCC3CCCO3)n2)c1 (centres undefined) | -0.356
84 | CC1=CC2CC1C1C(=O)N(c3ccc(S(=O)(=O)Nc4nc(C)cc(C)n4)cc3)C(=O)C21 (centres undefined) | 0.305
85 | COc1cc(-c2cn(S(=O)(=O)c3cccc4nsnc34)nc2N)cc(OC)c1OC | -0.48
86 | COC(=O)c1c(NC(=O)CSc2nc3ccccc3c(=O)n2-c2ccccc2)sc(C)c1C | 0.0464
87 | Fc1ccc(-c2oncc2-c2nnnn2-c2ccccc2)cc1F | -0.128
88 | CC1CN(C(=O)c2c([N+](=O)[O-])cnn2C)CC(C)O1 (centres undefined) | -0.148
89 | O=C(NCCC1=CCCCC1)C1CCCN(S(=O)(=O)c2ccc(F)cc2)C1 (centres undefined) | -0.0388
90 | CCC1Oc2ccc(C)cc2N(CC(=O)NCCCN2CCCCC2CC)C1=O (centres undefined) | 0.21
91 | COC(=O)c1[nH]c2ccc(C)cc2c1NC(=O)CN1CCC(C)CC1 | -0.447
92 | CCc1ccc(NC2=NCC(=O)N2c2ccc3c(c2)OCCO3)cc1 | 0.581

Row | SMILES | z-score
93 | CN(C)c1cc(NC(=O)CN2CCOCC2)c2ccccc2n1 | 0.0658
94 | Cc1ccc(NC(=O)Nc2ncccc2C)cc1 | -1.32
95 | COCc1c(Br)c(C)nc(OCC(=O)N/N=C/c2cc(C)n(-c3ccc([N+](=O)[O-])cc3)c2C)c1C#N | 0.601
96 | O=C(CCCOc1ccccc1)N1CCCc2ccccc21 | -0.431
97 | Cc1cc(C)c2c(=O)[nH]c(SCC(=O)NCc3ccccc3)nc2n1 | -0.395
98 | Cc1nnc2sc(-c3csc4c3CCCC4)nn12 | -0.0897
99 | CC(c1ccccc1)C1CC(=O)N(CC(=O)O)C1=O (centres undefined) | 0.578
100 | CC(C)[C@H](NS(=O)(=O)c1ccccc1)C(=O)OCC(=O)Nc1ccccc1Sc1ccccc1 | 0.0146
101 | CC(=O)N1CCN=C1SCc1ccccc1 | -0.898
102 | CCCN1C(=O)C(O)(C2CC(=O)CC(C)(C)O2)c2ccccc21 (centres undefined) | -0.328
103 | COC(=O)c1ccc2c(=O)n(Cc3ccc(C(=O)NC4CCCC4)cc3)c(=S)[nH]c2c1 | 0.137
104 | CC(C)(C)NS(=O)(=O)c1ccc(NS(=O)(=O)Cc2ccccc2)cc1 | -0.00194
105 | CCCC1OC23CCCCC2C(C#N)(C(=N)O3)C1(C#N)C#N (centres undefined) | 0.553
106 | NC(=O)C1CCN(C(=O)CCc2nc3ccccc3c(=O)[nH]2)CC1 | -0.321
107 | COc1ccccc1N1CCN(C(=O)c2c(C)cc(=O)oc2C)CC1 | -0.139
108 | COc1ccccc1-c1nn2c(=O)cc(C)nc2s1 | 0.198
109 | Cc1cc(C)nc(Nc2ncc(O)n2-c2ccc(C)c(Cl)c2)n1 | 0.17
110 | CC1NC(=O)NC1CCCCCC(=O)NCCc1ccccc1 (centres undefined) | 0.551
111 | COc1ccc(C2C3=C(N=C4SCC(=O)N42)c2ccccc2CC3)cc1 (centres undefined) | -0.955
112 | Cc1nc2cc(-c3ccc(Cl)cc3)nn2c(C)c1CCC(=O)NCc1ccco1 | -0.0434
113 | NC(=O)C1c2ccccc2CSc2ccccc21 (centres undefined) | -0.305
114 | CC1CCCN(C(=O)COC(=O)c2ccc[nH]c2=O)C1 (centres undefined) | 0.0234
